The antibiotic and cytotoxicity screens of Wong et al. (2023)
Some of the results follow.

How the values were obtained:
[1] = tested on: HSkMC (human skeletal muscle cells); experiment: cytotoxicity call (relative viability < 0.9); details: 10 µM
[2] = tested on: HepG2; experiment: cytotoxicity call (relative viability < 0.9); details: 10 µM
[3] = tested on: S. aureus RN4220; experiment: growth inhibition call (relative growth <= 0.2); details: 50 µM

Compound	cytotoxicity call [1]	cytotoxicity call [2]	growth inhibition call [3]
Cc1noc(C)c1S(=O)(=O)Nc1ccc2c(c1)C(=O)N([C@@H](C)CO)C[C@@H](C)[C@@H](CN(C)Cc1ccc(C(=O)Nc3ccccc3N)cc1)OCCCC[C@H](C)O2	inactive	inactive	inactive
C[C@@H]1CN([C@H](C)CO)C(=O)Cc2cc(NS(=O)(=O)c3ccccc3)ccc2O[C@@H]1CN(C)S(=O)(=O)c1ccc(F)cc1	inactive	inactive	inactive
COc1cc2c(cc1OC)-c1c(oc3c4c(ccc3c1=O)OC(C)(C)C=C4)CO2	inactive	active	inactive
Cc1ccc(S(=O)(=O)Nc2ccc3c(c2)C(=O)N([C@H](C)CO)C[C@H](C)[C@H](CN(C)Cc2ccc(-c4ccccc4)cc2)O3)cc1	active	active	inactive
Cc1noc(C)c1S(=O)(=O)N(C)C[C@H]1Oc2ccc(NS(=O)(=O)c3ccc(Cl)cc3)cc2C(=O)N([C@@H](C)CO)C[C@H]1C	inactive	inactive	inactive
C[C@H](CO)N1C[C@H](C)[C@H](CN(C)C(=O)Cc2ccccc2)OCCCC[C@H](C)Oc2ccc(NS(=O)(=O)c3cccs3)cc2C1=O	inactive	inactive	inactive
COc1ccc(NC(=O)Nc2ccc3c(c2)C(=O)N([C@@H](C)CO)C[C@H](C)[C@H](CN(C)C(=O)NC(C)C)OCCCC[C@@H](C)O3)cc1	inactive	inactive	inactive
Cc1noc(C)c1NC(=O)N(C)C[C@H]1OCCCC[C@@H](C)Oc2ccc(NC(=O)c3ccccc3)cc2C(=O)N([C@@H](C)CO)C[C@H]1C	inactive	inactive	inactive
C[C@H](CO)N1C[C@H](C)[C@@H](CN(C)C(=O)Nc2ccccc2)OCCCC[C@H](C)Oc2ccc(NC(=O)Nc3ccccc3)cc2C1=O	inactive	inactive	inactive
C[C@H](CO)N1C[C@H](C)[C@H](CN(C)S(=O)(=O)c2ccccc2)Oc2ccc(NC(=O)Nc3cccc4ccccc34)cc2C1=O	inactive	inactive	inactive
NC(=O)Cc1cccc(C(=O)c2ccccc2)c1N	inactive	inactive	inactive
COc1ccc(C#Cc2cccc(-c3nc(C(=O)N[C@@H]4CCN(Cc5ccccc5)C4)cc4c3[C@H](CCO)N(S(=O)C(C)(C)C)C4)c2)cc1OC (stereo partly drawn)	inactive	inactive	inactive
C[C@H]1CCCCO[C@H](CN(C)C(=O)NC2CCCCC2)[C@@H](C)CN([C@@H](C)CO)C(=O)c2cc(NS(=O)(=O)c3ccccc3)ccc2O1	inactive	inactive	inactive
COc1ccc(NC(=O)Nc2ccc3c(c2)C(=O)N([C@@H](C)CO)C[C@H](C)[C@H](CN(C)C(=O)Nc2ccc(F)cc2)OCCCC[C@@H](C)O3)cc1	inactive	inactive	inactive
CNC(=O)c1ccc(Nc2ncc(C(F)(F)F)c(NCc3nccnc3N(C)S(C)(=O)=O)n2)cc1	active	active	inactive
O=C(NC[C@@H](O)CO)[C@]1(CCS(=O)(=O)c2ccccc2)N=C(c2ccc(OCCCO)cc2)O[C@@H]1c1ccccc1	inactive	inactive	inactive
C[C@@H]1CN([C@@H](C)CO)S(=O)(=O)c2ccc(C#Cc3ccc(F)cc3)cc2O[C@H]1CN(C)S(=O)(=O)c1cn(C)cn1	inactive	inactive	inactive
NNC(=S)Nc1ccccc1	inactive	inactive	inactive
C[C@@H]1CN([C@H](C)CO)C(=O)c2cc(NC(=O)Nc3ccc4c(c3)OCO4)ccc2O[C@@H](C)CCCCO[C@H]1CN(C)C(=O)C1CCCCC1	inactive	inactive	inactive

Compound	cytotoxicity call [1]	cytotoxicity call [2]	growth inhibition call [3]
C[C@@H]1CCCCO[C@@H](CN(C)Cc2ccc3c(c2)OCO3)[C@@H](C)CN([C@H](C)CO)C(=O)c2cc(NS(=O)(=O)c3ccc(Cl)cc3)ccc2O1	inactive	active	inactive
O=C(C[C@@H]1CC[C@@H]2[C@H](COC[C@@H](O)CN2C(=O)Nc2ccc(Cl)cc2)O1)NCCc1ccncc1	inactive	inactive	inactive
C[C@H]1Cc2cc(S(=O)(=O)N(C)CC(=O)N3CCOCC3)ccc2N1C(=O)C1CC1	inactive	inactive	inactive
C[C@H]1CN([C@@H](C)CO)C(=O)Cc2cc(NS(=O)(=O)c3cn(C)cn3)ccc2O[C@@H]1CN(C)S(C)(=O)=O	inactive	inactive	inactive
COc1ccc(NC(=O)N(C)C[C@@H]2OCCCC[C@H](C)Oc3ccc(NS(=O)(=O)c4cccs4)cc3C(=O)N([C@@H](C)CO)C[C@@H]2C)cc1	inactive	inactive	inactive
COc1ccc(S(=O)(=O)Nc2ccc3c(c2)C(=O)N([C@@H](C)CO)C[C@H](C)[C@H](CN(C)Cc2ccc4c(c2)OCO4)OCCCC[C@H](C)O3)cc1	inactive	inactive	inactive
COCC#Cc1ccc2c(c1)O[C@@H](CN(C)S(=O)(=O)c1cccc(F)c1)[C@@H](C)CN([C@H](C)CO)S2(=O)=O	inactive	inactive	inactive
Cc1noc(C)c1NC(=O)Nc1ccc2c(c1)C(=O)N([C@@H](C)CO)C[C@@H](C)[C@@H](CN(C)S(=O)(=O)c1cccs1)OCCCC[C@@H](C)O2	inactive	inactive	inactive
CCS(=O)(=O)N1C[C@]2(CCN(CC2)C(=O)c2cccnc2)c2c(n(c3cc(ccc23)OC)C)[C@H]1CO	inactive	inactive	inactive
CC(C)CC#Cc1cnc2c(c1)C(=O)N([C@@H](C)CO)C[C@@H](C)[C@H](CN(C)C(=O)CCN1CCCCC1)O2	inactive	inactive	inactive
C[C@@H]1CN([C@@H](C)CO)C(=O)Cc2cc(NC(=O)C3CCCCC3)ccc2O[C@H]1CN(C)S(C)(=O)=O	inactive	inactive	inactive
CO[C@H]1CN(C)C(=O)c2ccc(NS(C)(=O)=O)cc2OC[C@H](C)N(C(=O)C2CCOCC2)C[C@H]1C	inactive	inactive	inactive
COCC#Cc1cnc2c(c1)C(=O)N([C@@H](C)CO)C[C@@H](C)[C@H](CN(C)C(=O)CN1CCOCC1)O2	inactive	inactive	inactive
O=C(C[C@@H]1C=C[C@@H](NS(=O)(=O)c2ccc(F)cc2)[C@@H](CO)O1)NCc1ccc(Cl)c(Cl)c1	inactive	inactive	inactive
COc1ccc2c3c(n(c2c1)C)[C@H](CO)N(CC1CCOCC1)C[C@]13CCN(CC1)C(=O)c1cnccn1	inactive	inactive	inactive
CC(C)C#Cc1cnc2c(c1)C(=O)N([C@H](C)CO)C[C@H](C)[C@H](CN(C)S(=O)(=O)c1cn(C)cn1)O2	inactive	inactive	inactive
C[C@H](CO)N1C[C@H](C)[C@@H](CN(C)Cc2ccc(Cl)c(Cl)c2)OCCCC[C@H](C)Oc2ccc(NS(=O)(=O)c3cccs3)cc2C1=O	inactive	inactive	inactive
COc1cccc(S(=O)(=O)N[C@H]2C=C[C@H](CC(=O)NC3CCC3)O[C@H]2CO)c1	inactive	inactive	inactive
O=C(CCCCn1c(=O)[nH]c2ccccc2c1=O)N1CCN(c2ncccn2)CC1	inactive	inactive	inactive

Compound	cytotoxicity call [1]	cytotoxicity call [2]	growth inhibition call [3]
C[C@@H]1CN([C@H](C)CO)C(=O)Cc2cc(NS(=O)(=O)c3ccc(F)cc3)ccc2O[C@H]1CN(C)CC1CC1	inactive	inactive	inactive
COc1ccc(C#Cc2ccc3c(c2)O[C@@H](CN(C)C(=O)CN2CCOCC2)[C@@H](C)CN([C@H](C)CO)S3(=O)=O)cc1	inactive	inactive	inactive
COc1ccc2c(c1)[C@@H](NCC=C(C)C)[C@H](C)[C@H]2c1ccccc1	inactive	inactive	inactive
CC(CCC(=O)O)C1CCC2C3C(=O)CC4CC(=O)CCC4(C)C3CC(=O)C12C (stereo not drawn)	inactive	inactive	inactive
C[C@@H]1CN([C@H](C)CO)C(=O)c2cc(NC(=O)Cc3ccccc3)ccc2O[C@@H]1CN(C)S(=O)(=O)c1ccccc1	inactive	inactive	inactive
COc1ccc(CNC(=O)C[C@@H]2C[C@H]3c4cc(NS(=O)(=O)c5ccc(F)cc5)ccc4O[C@H]3[C@H](CO)O2)cc1	inactive	inactive	inactive
OC1C(O)C(O)C(O)C(O)C1O (stereo not drawn)	inactive	inactive	inactive
CC(C)NC(=O)N[C@@H]1C=C[C@@H](CC(=O)NCCN2CCCC2)O[C@H]1CO	inactive	inactive	inactive
Cc1cc(C)n2nc(CCCO)nc2n1	inactive	inactive	inactive
C[C@H](CO)N1C[C@H](C)[C@@H](CN(C)S(=O)(=O)c2cn(C)cn2)Oc2ccc(NS(=O)(=O)c3cccs3)cc2CC1=O	inactive	inactive	inactive
Oc1cccc(O)c1O	inactive	inactive	inactive
Cc1noc(C)c1S(=O)(=O)Nc1ccc2c(c1)CC(=O)N([C@@H](C)CO)C[C@H](C)[C@@H](CN(C)C(=O)Nc1ccc3c(c1)OCO3)O2	inactive	inactive	inactive
COc1ccc(NC(=O)N(C)C[C@H]2OCCCC[C@@H](C)Oc3ccc(NC(=O)Nc4cccc5ccccc45)cc3C(=O)N([C@H](C)CO)C[C@@H]2C)cc1	inactive	inactive	inactive
Cc1noc(C)c1S(=O)(=O)N(C)C[C@@H]1Oc2ccc(NC(=O)Nc3ccccc3)cc2CC(=O)N([C@@H](C)CO)C[C@@H]1C	inactive	inactive	inactive
CC(C)CN[C@H]1CCS(=O)(=O)C1	inactive	inactive	inactive
COc1ccc(CN(C)C[C@@H]2Oc3ccc(NS(=O)(=O)c4cn(C)cn4)cc3C(=O)N([C@H](C)CO)C[C@H]2C)cc1	inactive	inactive	inactive
C[C@H](CO)N1C[C@H](C)[C@@H](CN(C)Cc2ccncc2)Oc2ccc(NC(=O)Nc3ccc(C(F)(F)F)cc3)cc2CC1=O	active	active	inactive
Nc1cccc(C2=NCCN2)c1	inactive	inactive	inactive
